# Measured values reported in article PMC6919601, “Identification of Plasmodium dipeptidyl aminopeptidase allosteric inhibitors by high throughput screening” (PLoS ONE, 2019).
# Screen size: about 110,000 compounds; about 230 (0.21%) showed an effect of 50% or more. The list shows a part of the results.
# Target: DPAP1 (Plasmodium falciparum, UniProt Q8IIJ9)
# Assay: primary screen, percent inhibition; read by cleavage of a fluorogenic dipeptide substrate; higher = more effect of the substance
# Parameters: species or system P. falciparum D10 trophozoite lysates; single well
# 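Note: 30 min substrate incubation versus DMSO and 10 µM JCP410 controls.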
# DPAP1, sequence (Q8IIJ9 whole entry, looked up): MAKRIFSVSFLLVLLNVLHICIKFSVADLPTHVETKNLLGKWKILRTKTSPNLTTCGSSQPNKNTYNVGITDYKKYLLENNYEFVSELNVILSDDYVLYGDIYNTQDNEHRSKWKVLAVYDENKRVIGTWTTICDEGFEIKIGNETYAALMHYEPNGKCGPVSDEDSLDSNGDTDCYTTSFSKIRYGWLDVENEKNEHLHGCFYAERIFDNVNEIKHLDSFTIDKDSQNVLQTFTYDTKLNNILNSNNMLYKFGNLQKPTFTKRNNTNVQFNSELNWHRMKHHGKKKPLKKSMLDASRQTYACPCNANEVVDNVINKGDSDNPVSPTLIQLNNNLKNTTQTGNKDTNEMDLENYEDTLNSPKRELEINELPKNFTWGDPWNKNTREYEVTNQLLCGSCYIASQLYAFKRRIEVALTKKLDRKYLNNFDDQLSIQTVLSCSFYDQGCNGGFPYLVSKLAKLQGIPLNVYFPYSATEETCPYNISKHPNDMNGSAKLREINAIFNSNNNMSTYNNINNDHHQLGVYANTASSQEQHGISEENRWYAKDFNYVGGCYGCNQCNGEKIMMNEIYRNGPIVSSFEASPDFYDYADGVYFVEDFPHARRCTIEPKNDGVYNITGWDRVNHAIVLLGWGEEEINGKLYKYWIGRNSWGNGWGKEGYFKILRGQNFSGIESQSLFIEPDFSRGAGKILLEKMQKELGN
row,SMILES,% Inhibition @ 10 uM
1,CC1=CN2C(=N)/C(=C/c3ccc(SC4CCCCC4)o3)C(=O)N=C2S1,-1.28%
2,CSc1nc(-c2ccccc2)nn1S(=O)(=O)c1ccc(Cl)cc1,0.722%
3,COc1ccc(CN2CC(C(=O)N3CCn4c(nc5ccccc54)C3)CC2=O)cc1 (stereo not drawn),0.446%
4,CCC(C#N)NC(=O)[C@H](CC(C)C)NC(=O)OCc1ccccc1 (stereo partly drawn),-1.41%
5,CCCSc1nnc(NC(=O)Cc2coc3c(C)c(C)ccc23)s1,4.18%
6,Cc1ccc(OCC(=O)Nc2ccc(S(=O)(=O)N3CCc4ccccc43)cc2)cc1,2.48%
7,CCOC(=O)C1CCN(Cc2ccccc2C(F)(F)F)CC1,1.55%
8,CC(C)CC(C(=O)NC1(C#N)CC1)c1cccc(-c2cccc(-c3csc(N4CCNCC4)n3)c2)c1 (stereo not drawn),-6.46%
9,COC(=O)C1=C(C)OC(N)=C(C#N)C1c1cc(Cn2cnc3ccccc32)c(C)s1 (stereo not drawn),-1.85%
10,O=C1/C(=C\c2ccc(O)cc2)CC/C1=C\c1ccc(O)cc1,0.937%
11,CCOc1ccccc1C(=O)NCC(C)C,3.04%
12,CC(C)C[C@H](NC1=NS(=O)(=O)c2ccccc21)C(=O)NCC#N,-3.48%
13,O=c1c2nc3ccccc3n2c(=O)n2c1nc1ccccc12,-6.09%
14,COCCNC(=O)c1cc2nc(-c3ccccc3)cc(C)n2n1,-4.27%
15,CCOC(=O)c1c(C)c(-c2ccccc2)n(CC(=O)N2CCN(c3ncccn3)CC2)c1C,6.2%
16,CCC(Oc1ccccc1)C(=O)Nc1ccc(F)cc1F (stereo not drawn),2.78%
17,COc1cc(C(=O)NC2(C(F)(F)F)C(=O)NC(C)=C2C#N)cc(OC)c1OC (stereo not drawn),-1.52%
18,O=C(CN1CCCCC1)N1c2ccccc2Sc2ccc(Cl)cc21,-3.77%
19,Cc1cc(C(=O)N2CCn3c2nc2ccccc23)[nH]n1,0.713%
20,COc1ccc(N(C(C)C(=O)Nc2cc(OC)ccc2OC)S(C)(=O)=O)cc1 (stereo not drawn),-15.1%
21,COc1cccc(C2NC(C(=O)O)Cc3c2[nH]c2ccccc32)c1O (stereo not drawn),3.31%

row,SMILES,% Inhibition @ 10 uM
1,O=C1OC(c2ccccc2F)=N/C1=C/c1cccc2ccccc12,-0.0894%
2,CC1(C)Cc2occc2C(NC(=O)CCC(=O)O)C1 (stereo not drawn),-1.55%
3,O=C(Nc1ccccc1)N1CCCC1,-4.94%
4,Cc1cc(C)cc(Oc2nc3c(C)cccn3c(=O)c2/C=C(\C#N)C(=O)N2CCOCC2)c1,0.315%
5,COc1cccc(OCCCCN2CCCCC2)c1,-1.05%
6,Clc1ccc(OCCCN2CCCCC2)c2ccccc12,-0.833%
7,CCCC(NC(=O)C(Cc1c(F)cccc1F)NC(=O)c1ccc(-c2ccccc2Cl)cc1)C(=O)c1nc2ccccc2o1 (stereo not drawn),-0.207%
8,CCC(C)NC(=O)C1CCCCN1S(=O)(=O)c1ccc(F)cc1 (stereo not drawn),2.64%
9,COc1cc2nc(O)cc(O)c2cc1OC,-0.233%
10,Cc1cc(C)cc(NS(=O)(=O)c2ccc(NS(=O)(=O)c3ccc(Cl)cc3)cc2)c1,-1.11%
11,Cc1cc(C)n(-c2ccc(CC(=O)O)cc2)c(=O)n1,1.9%
12,O=C1NC(=O)/C(=C\c2cccc(C(F)(F)F)c2)S1,4.54%
13,COC(=O)c1sccc1NC(=O)c1cnn(-c2ccc(C)cc2)c1-n1cccc1,-7.05%
14,COc1ccc(C2CC(=O)C(/C=N/c3ccc(Br)cc3)=C(O)C2)cc1 (stereo not drawn),-1.84%
15,CC1(C)CC(NS(=O)(=O)c2ccccc2)CC(C)(CNS(=O)(=O)c2ccccc2)C1 (stereo not drawn),5.97%
16,O=C(NCc1ccc2c(c1)OCO2)c1cc(-c2ccccc2F)no1,-2.07%
17,COc1ccc(S(=O)(=O)N2CCC(C(=O)Nc3ccc(NC(C)=O)cc3)CC2)cc1,-1.07%
18,Cc1cccc(OCCn2cnc3ccccc32)c1,2.73%
19,COc1ccc(-c2cn3nc(N4CCCC(C(=O)N(C)Cc5ccccc5)C4)sc3n2)cc1 (stereo not drawn),3.21%
20,O=C(CCN1C(=O)c2cccc3cccc(c23)C1=O)N1CCN(c2ccccc2F)CC1,-3.12%
21,CCCc1cc(O)n2nc(NCc3ccccc3C)nc2n1,-4.19%

row,SMILES,% Inhibition @ 10 uM
1,O=C(c1ccccc1)N1CC(COc2ccccc2)OC(c2ccccc2O)O1 (stereo not drawn),-1.98%
2,O=C(Nc1cccc(Cl)c1Cl)c1ccccc1Br,1.4%
3,CC1CCN(C(=O)CSc2ncnc3sc4c(c23)CCCC4)CC1,0.161%
4,O=C(O)C1CCN(c2nc3ccccc3n3cccc23)CC1,3.04%
5,O=C1C(Cl)=C(Nc2ccccc2O)C(=O)N1c1ccc(Br)cc1,2.36%
6,N#CCNC(=O)C(CC1CCCCC1)C(=O)N1CCc2ccccc21 (stereo not drawn),-6.98%
7,Cn1c(=O)[nH]c(=O)c2c1nc(N1CCOCC1)n2CC(O)COc1cccc2ccccc12 (stereo not drawn),-10.9%
8,CCCCCNC(=O)c1cc2c(=O)n3cccc(C)c3nc2n1C,-5.01%
9,CCCC(C)NC(=O)c1cccc(OC)c1 (stereo not drawn),-6.77%
10,CC(=C1C(=O)c2ccccc2C1=O)N1CCC(Cc2ccccc2)CC1,-0.169%
11,CN1C(=O)COc2ccc(-c3cn(C)c(=O)c4ccccc34)cc21,4.77%
12,O=C(CCc1ccccc1)Nc1c2c(nn1-c1ccc(Cl)cc1)CS(=O)(=O)C2,3.8%
13,COc1ccc(-c2nc(CSc3nncn4c3cc3sccc34)c(C)o2)cc1,5.18%
14,COc1ccc(-n2cc(Cl)nc(N3CCC[C@H]3C(=O)O)c2=O)cc1,-0.25%
15,Cc1cc(O)c2c(C)c(CC(=O)NCCc3ccccc3)c(=O)oc2c1,4.13%
16,Cc1ccc(C2=NC3(CCN(C(=O)c4ccc5c(c4)OCO5)CC3)NC2=O)cc1,2.36%
17,COc1ccccc1COC(=O)N[C@@H](CC(C)C)C(=O)NCC#N,12.5%
18,COc1cccc(S(=O)(=O)Nc2ccc3c(c2)OCCO3)c1,-3.29%
19,Brc1ccc(OCCCCCCN2CCCC2)cc1,-0.351%
20,O=C1c2ccccc2C(=O)N1CCCn1nnc2sc(-c3ccccc3)cc2c1=O,7.04%
21,CS(=O)(=O)n1nc(-c2ccco2)nc1NCc1ccccc1,0.248%
